Source: paper PMC4336329 (PLoS ONE, 2015)
In all, about 310,000 compounds went through this assay and about 2,200 (0.71%) showed an effect of 50% or more. Effects have a minus sign here. Some of the results follow.

What follows are molecules tested against human ether-à-go-go-related gene (hERG) potassium channel (human, UniProt Q12809) (assay: primary screen, population patch clamp on CHO cells stably expressing hERG).
human ether-à-go-go-related gene (hERG) potassium channel, sequence (Q12809 whole entry, looked up): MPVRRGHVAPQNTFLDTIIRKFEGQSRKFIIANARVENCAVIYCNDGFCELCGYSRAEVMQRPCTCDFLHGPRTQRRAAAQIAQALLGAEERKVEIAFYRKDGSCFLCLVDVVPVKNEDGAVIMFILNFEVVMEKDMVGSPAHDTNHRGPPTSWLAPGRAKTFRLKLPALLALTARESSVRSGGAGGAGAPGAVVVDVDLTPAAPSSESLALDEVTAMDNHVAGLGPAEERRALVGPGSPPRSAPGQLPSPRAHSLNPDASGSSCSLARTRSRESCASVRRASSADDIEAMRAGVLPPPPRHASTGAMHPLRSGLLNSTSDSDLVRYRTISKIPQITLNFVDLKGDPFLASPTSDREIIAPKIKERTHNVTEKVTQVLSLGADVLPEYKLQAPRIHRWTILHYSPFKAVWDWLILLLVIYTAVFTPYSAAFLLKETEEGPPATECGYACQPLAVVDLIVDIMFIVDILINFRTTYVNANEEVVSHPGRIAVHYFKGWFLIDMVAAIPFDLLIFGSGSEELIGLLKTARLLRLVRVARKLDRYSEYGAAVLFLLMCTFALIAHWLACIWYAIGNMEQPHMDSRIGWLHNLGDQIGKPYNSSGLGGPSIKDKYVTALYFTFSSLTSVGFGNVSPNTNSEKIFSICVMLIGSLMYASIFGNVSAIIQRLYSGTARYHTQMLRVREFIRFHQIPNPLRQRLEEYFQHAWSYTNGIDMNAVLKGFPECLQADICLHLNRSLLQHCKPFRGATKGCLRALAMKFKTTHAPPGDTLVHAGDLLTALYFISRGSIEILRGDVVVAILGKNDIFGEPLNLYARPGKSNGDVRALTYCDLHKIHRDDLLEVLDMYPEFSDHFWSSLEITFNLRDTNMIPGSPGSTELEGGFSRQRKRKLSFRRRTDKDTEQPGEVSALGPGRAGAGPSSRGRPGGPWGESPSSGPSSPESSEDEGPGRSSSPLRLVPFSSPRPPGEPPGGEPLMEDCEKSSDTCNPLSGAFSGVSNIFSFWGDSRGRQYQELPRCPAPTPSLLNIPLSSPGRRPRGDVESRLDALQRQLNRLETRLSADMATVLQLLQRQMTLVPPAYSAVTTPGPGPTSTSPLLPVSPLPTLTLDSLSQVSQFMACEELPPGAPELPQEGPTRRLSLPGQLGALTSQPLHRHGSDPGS

Row | Structure (SMILES) | hERG current change (%, negative = inhibition) at 1uM [%]
1 | CCCCOc1cccc(C(=O)NC(=S)Nc2cccc(C(F)(F)F)c2)c1 | 11.9
2 | Cc1ccc(S(=O)(=O)CCC(=O)Oc2ccc(-c3nnco3)cc2)cc1 | 8.72
3 | O=C1CNC(=S)N1c1nc2ccccc2s1 | 18.3
4 | CC(=O)Nc1ccc(S(=O)(=O)N2CCC(C(=O)c3ccc(Cl)cc3)CC2)cc1 | 9.25
5 | O=C1NCCc2c1[nH]c1c(Cl)ccc(Cl)c21 | 1.54
6 | Cc1cccc(/C=C2/Sc3ccc(C(=O)NCCCN4CCOCC4)cc3NC2=O)c1 | 11.7
7 | COc1cc(OC)cc(-c2ncc3ccccn23)c1.O=C(O)C(=O)O | 6.57
8 | CCC(=NCc1ccco1)c1c(O)n(-c2ccc(C)cc2)c(=O)[nH]c1=O | -1.7
9 | CCn1c(=O)c2c(nc(SCC(=O)N3CCC(C)CC3)n2C)n(C)c1=O | 10.3
10 | CCC(C)Nc1nc(C)nc2c1oc1ccccc12.Cl (centres unmarked) | 8.23
11 | Cc1ccc(NC(=S)NCC2CCCO2)c(OC(F)F)c1 (centres unmarked) | 11.4
12 | O=C(COc1cccc([N+](=O)[O-])c1)NN1C(=O)c2ccccc2C1=O | 16.8
13 | Cc1ccc(-c2cn(S(=O)(=O)c3ccc(C)cc3)nc2N)cc1 | 6.87
14 | CCOC(=O)c1[nH]c(C)c(C(=O)OC(C)C(=O)Nc2ncc(Cl)cc2Cl)c1C (centres unmarked) | 3.74
15 | CC(C(Sc1ccccc1N)c1ccccc1)[N+](=O)[O-] (centres unmarked) | 9.14
16 | COc1c(C=O)cc2c3c1CCCN3CCC2 | 18.6
17 | Cc1ccc(-c2c[nH]c(=S)n2-c2ccccc2)cc1 | 5.11
18 | Cl.NC(=NCc1ccccc1)NC(=O)c1nc(Cl)c(N)nc1N | -26
19 | COc1cccc(-c2csc(NC3OC(=O)c4c3ccc(OC)c4OC)n2)c1 (centres unmarked) | 9.78
20 | Cc1ccc(F)c(Cn2cnc3c(cnn3C(C)(C)C)c2=O)c1Cl | 11.5
21 | O=C(N/N=C/c1cc(Br)ccc1O)C(c1ccncc1)N1CCOCC1 (centres unmarked) | 5.53
22 | COCCNC(=O)[C@@H]1CCCN1C(=O)C1CCN(S(=O)(=O)c2ccc(C)cc2)CC1 | 15.5

Row | Structure (SMILES) | hERG current change (%, negative = inhibition) at 1uM [%]
23 | Cn1c(=O)n(CC(=O)N2CCN(c3nnc(-c4ccccc4)c4ccccc34)CC2)c2ccccc21 | -12.7
24 | COc1ccc2[nH]c(=O)c(CN(C(=O)COc3ccccc3)C(C)C)cc2c1 | 4.57
25 | Nc1nonc1-n1nnc(C(=O)N/N=C/c2cccs2)c1-c1ccc2c(c1)OCO2 | 2.97
26 | CC(C)(C)C1CC=C2C(C#N)=C(N)C(C#N)(C#N)C(c3cccs3)C2C1 (centres unmarked) | 11.1
27 | CN1CCC(OC(=O)c2cccc(F)c2)CC1.Cl | 12.9
28 | COc1ccccc1C(=O)NCCN1CCN(C(=O)c2ccccc2OC)CC1 | 4.56
29 | CC(=O)c1ccc(S(=O)(=O)Nc2ccc(-n3cnnn3)cc2)cc1 | 9.2
30 | COc1ccc(N(C(=O)CNS(=O)(=O)c2ccccc2)C(C(=O)NCc2ccco2)C(C)C)cc1 (centres unmarked) | 9.05
31 | CCN(CC)CCNC(=O)c1ccc(NC(=O)c2c(F)cccc2Cl)cc1 | -1.41
32 | O=C(CCCC(=O)N(CC(=O)NC1CCCC1)Cc1ccccc1Cl)Nc1ccccn1 | 1.83
33 | Cc1cc(Nc2ccccc2)n(-c2ccccc2)n1 | 0.831
34 | CCN(CC)CCCC(C)NC1=NCCCCC1 (centres unmarked) | 10.3
35 | CCOC(=O)Cc1csc(SCC(=O)Nc2oc(C)c3c(C)n[nH]c(=O)c23)n1 | -5.5
36 | CC(C)C(NC(=O)c1c(F)cccc1F)C(=O)N1CCN(S(=O)(=O)c2ccc(F)cc2)CC1 (centres unmarked) | 1.77
37 | CCOC(=O)c1c(S(=O)(=O)N2CCN(Cc3ccccc3)CC2)c(C)n(C)c1C | 3.83
38 | NC(=O)C1(N2CCCCC2)CCN(C(=S)Nc2cccc(Cl)c2)CC1 | 14.5
39 | COc1ccc2c(Cn3cnc4cc([N+](=O)[O-])ccc4c3=O)cc(=O)oc2c1 | 3.34
40 | CCOC(=O)C1CCCN(CC(=O)Nc2c(C(=O)OC)[nH]c3ccc(Br)cc23)C1 (centres unmarked) | -3.53
41 | Cc1cc(C(=O)OCC(=O)NC(C)(C)C)c2ccccc2n1 | 12.9
42 | O=C(COC(=O)c1ccc2c(c1)OCCO2)Nc1cc(Cl)ccc1Cl | 12
43 | FC(F)(F)c1cccc(Cc2noc(CN3C[C@@H]4CCC[C@H]3C4)n2)c1 | 6.94
44 | CCOc1ccc(/C=N/OC(C)C(=O)NCc2ccc3c(c2)OCO3)cc1 (centres unmarked) | 7.76
